# Test results reported in patent US12553037B2, “Engineered class 2, type V repressor systems” (Scribe Therapeutics Inc., priority 2021, dated 2026).
# Key:
# [1] = system: 5′UTR sequence of the C9orf72 locus in the GFP-TK reporter; test: Lentivirus competition experiments, spacer fitness by NGS (Example 3); conditions: dXR (ZNF10-KRAB), scaffold 174, GFP-TK-c10 cells, 5 days 5 μg/mL ganciclovir
# Experimental: Specifically, TK metabolizes the typically inert pro-drug ganciclovir into a toxic thymidine analog that leads to cell death. The nucleofected cells were selected in hygromycin for 1 month, sorted to single cells and characterized for ganciclovir sensitivity.
# Separately, cells were transduced (250,000 cells; 6-well format) with multiple virus combinations at defined ratios (Table 17). 48 hours post-transduction, half of the cells in each well were harvested and frozen as cell pellets, and the other half were selected in the same manner (5 days; 5 μg/mL ganciclovir). After ganciclovir selection the remaining cells were harvested and gDNA was extracted from both pre- and post-ganciclovir treatment samples. Primers flanking the region containing the spacer sequence in the lentivirus constructs were used to generate amplicons for next generation sequencing analysis in which the ratios of the spacers in each well were compared pre- and post-selection. These ratios were used to calculate spacer fitness scores for each competition by taking the log 2 of the fold change in the spacer frequency from pre-selection to post-selection. Fitness was determined by the following equation: […]
# [2] = system: 5′UTR sequence of the C9orf72 locus in the GFP-TK reporter; test: Ganciclovir survival of GFP-TK-c10 reporter cells, arrayed dXR transductions (Example 3); conditions: dXR with ZNF10-KRAB and guide 174, 5 μg/mL ganciclovir for 5 days
substance,measurement,setting,value
"NT: non-targeting spacer 0.0, CGAGACGUAAUUACGUCUCG (expressed or natural sequence)","Fitness (log2 fold change in frequency of spacer counts, pre- to post-selection)","[1]; Experiment 1: competition of spacers 29.2000 (1) and 0.0 (NT), equal ratio",−3.38 log2 fold change
same,"Fitness (log2 fold change in frequency of spacer counts, pre- to post-selection)","[1]; Experiment 2: competition of spacers 29.168 (2) and 0.0 (NT), equal ratio",−3.10 log2 fold change
same,"Fitness (log2 fold change in frequency of spacer counts, pre- to post-selection)","[1]; Experiment 3: competition of spacers 29.163 (3) and 0.0 (NT), equal ratio",−0.38 log2 fold change
same,"Fitness (log2 fold change in frequency of spacer counts, pre- to post-selection)","[1]; Experiment 5 as printed in Table 18: spacers 1, 2, 3 and NT in competition",−3.44 log2 fold change
same,cell survival after ganciclovir treatment,[2],resulted in cell death
